Drawing on PubChem BioAssay AID485344 (National Center for Advancing Translational Sciences (NCATS), 2010), this text covers inhibition for 61 compounds.

The campaign covered roughly 340,000 compounds. About 6,900 (2%) were called active. No stated cut-off is given here; in the data, active means inhibition above about 30%; inactive means below that, where a call was filed. Only a part is listed here, and it is no random draw. The source gives no active or inactive call for entries shown without one.

The assay deals with D(2) dopamine receptor (Homo sapiens) (UniProt P14416). The assay can be described thus: HTS Assay for Allosteric Antagonists of the Human D2 Dopamine Receptor: Primary Screen for Antagonists. Further: 0% is about no effect. The conditions noted are these: HEK293 TREx D2 cells, calcium flux, dopamine EC80; at 10 µM; stronger effect = higher value. Summed up: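 Inhibition of EC80 dopamine-driven calcium flux, recorded kinetically, defines activity here; cells are a tetracycline-induced HEK293 T-REx line expressing force-coupled D2.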
Sequence of UniProt P14416 (P14416 whole entry, looked up): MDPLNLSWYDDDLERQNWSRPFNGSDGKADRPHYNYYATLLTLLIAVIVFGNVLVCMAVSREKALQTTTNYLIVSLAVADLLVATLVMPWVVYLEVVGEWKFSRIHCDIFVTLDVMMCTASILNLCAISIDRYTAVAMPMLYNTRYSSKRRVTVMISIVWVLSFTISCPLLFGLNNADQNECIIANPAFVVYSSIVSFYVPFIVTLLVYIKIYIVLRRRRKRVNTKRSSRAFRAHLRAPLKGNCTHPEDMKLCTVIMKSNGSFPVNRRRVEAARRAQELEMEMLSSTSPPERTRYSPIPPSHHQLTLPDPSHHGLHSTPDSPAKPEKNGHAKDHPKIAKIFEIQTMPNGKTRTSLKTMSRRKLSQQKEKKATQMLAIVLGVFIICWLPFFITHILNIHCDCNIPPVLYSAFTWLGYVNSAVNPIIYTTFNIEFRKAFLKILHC
(Calcium flux is commonly read through the fluorescence of an indicator in the cells.)
As a reminder, the inhibition is the change of the read-out against control, counted positive when it falls. Regarding `O=C(c1ccc2c(=O)n(CCc3ccccc3)c(=O)[nH]c2c1)N1CCN(c2ccc(Cl)cc2)CC1`, the inhibition was -4.5%.

With `CCn1c(C)c(C)c2cc(C(=O)NCCc3ccc(C)cc3)ccc21`, the inhibition came out at 26.4%.

For `O=C(Nc1ccc2nn(-c3ccccc3)nc2c1)c1ccc(-c2cccc(Cl)c2)o1`, the inhibition is -2.95%.

On to `CCOc1ccc(C(=O)N2CCN(Cc3cc(=O)n4nc(-c5ccccc5Cl)sc4n3)CC2)cc1`, for which the inhibition is -0.837%.

For the compound `O=C(CSc1nnc(CNC(=O)c2c(F)cccc2Cl)o1)Nc1cccc(F)c1`, the inhibition was 7.78%.

Take `CCOc1ccc(NS(=O)(=O)c2ccc(NC(=O)N3CCCC3)cc2)cc1`: the inhibition is -3.28%.

Take `CC(C)=CCN1CCN(CCC2=C(C)CCCC2(C)C)CC1CCO` (stereo unspecified): the inhibition was active: 60.9%.

In the case of `COCCCNC(=O)CCc1c(C)nc2cc(-c3ccc(Cl)cc3)nn2c1C`, the inhibition was found to be 21.4%.

Turning to `CC(C)Cn1c(/C=C/c2ccc(F)cc2)nc2ccccc21`, the inhibition was 9%.

Consider `O=C(c1cccs1)N1CCCc2cc(NS(=O)(=O)c3ccc(F)cc3)ccc21`, for which the inhibition worked out at 11%.

Turning to `COc1ccccc1NC(=O)C1=C(C)Nc2nc(SCc3cc(C)ccc3C)nn2C1c1ccccc1` (stereo unspecified), the inhibition is 17.1%.

On to `CCOC(=O)c1c(C)[nH]c(CCC(=O)Nc2ccccc2C(=O)OC)c1C`, for which the inhibition is -5.09%.

`CC(C)C(=O)Nc1ccc2nc(SCCOc3ccccc3)sc2c1`: the inhibition amounted to 1.03%.

As to `CCOc1ccc(CN2CCCC(CO)(Cc3ccccc3F)C2)cc1` (stereo unspecified), the inhibition is active: 66.8%.

Regarding `CCn1c(=O)n(CC)c2cc(N3CCCCC3)c(NC(=O)Nc3cc(Cl)ccc3OC)cc21`, the inhibition was found to be 9.14%.

For `Cc1ccccc1-c1cc(C(=O)N/N=C/c2cccnc2)c2ccccc2n1`, the inhibition is active: 32.5%.

As to `COc1ccc(-n2c(-c3ccco3)nc3c(cnn3-c3ccc(C)cc3)c2=O)cc1`, the inhibition is -8.38%.

`CCCCOCc1cc(CN2CCN(c3cccc(Cl)c3)CC2)c(O)c2ncccc12`: the inhibition amounted to 0.485%.

Regarding `COc1ccc(CCNC(=O)CCS(=O)(=O)c2ccc3c(c2)oc(=O)n3C)cc1OC`, the inhibition was -1.35%.

Regarding `Cc1ccc(N2CCN(C(=O)c3cn(C)c4ccc(S(=O)(=O)N(C)C5CCCCC5)cc4c3=O)CC2C)cc1` (stereo unspecified), the inhibition was -6.77%.

On to `Cc1nn2c(-c3cccc(NC(=O)c4ccc(Cl)cc4)c3)nnc2c2ccccc12`, for which the inhibition is 10.1%.

Take `CCN1CCC(N(Cc2ccc3c(c2)OCO3)C(=O)Nc2ccc(Br)c(C)c2)CC1`: the inhibition stood at 7.76%.

On to `CCS(=O)(=O)N1CCc2cc(C(=O)Nc3cc(Cl)ccc3C)ccc21`, for which the inhibition amounted to 26.2%.

For the compound `COc1cc(C2CC(=O)Nc3c2c(=O)nc2c(C)cccn32)cc(OC)c1OC` (stereo unspecified), the inhibition is -1.78%.

For `Cc1ccc(NC(=O)CSc2nncs2)cc1Cl`, the inhibition was active: 47.8%.

Turning to `CCN(CCCNC(=O)c1cc2cc3ccc(OC)cc3nc2s1)c1ccccc1`, the inhibition was 11.2%.

Regarding `Cc1ccc(NC(=O)C(Cc2ccccc2)NS(=O)(=O)c2cccc3nsnc23)c(C)c1` (stereo unspecified), the inhibition was -1.22%.

Regarding `Cc1cccc(CNC(=O)c2ccc(Cn3c(=O)c4cccn4c4cccnc43)cc2)c1`, the inhibition was determined as 10.4%.

Turning to `COc1cccc(Nc2nc(-c3ccccc3)c3cc(C)ccc3n2)c1`, the inhibition stood at 3.35%.

On to `COc1ccc(-c2cc3ccccc3n2CC(O)CN2CCC(C)CC2)cc1` (stereo unspecified), for which the inhibition was active: 81.3%.

Consider `O=C1c2oc3ccccc3c(=O)c2C(c2cccc(O)c2)N1c1ccccn1` (stereo unspecified), for which the inhibition was active: 30.8%.

With `O=C(CC1N=C2c3ccccc3N=C(SCc3ccccc3F)N2C1=O)NCc1cccs1` (stereo unspecified), the inhibition is -16.3%.

Turning to `CCCNS(=O)(=O)c1ccc(OCC(=O)NCCCOC)cc1`, the inhibition was active: 30.2%.

With `CCCOc1ccc(C(=O)Nc2c(C(=O)c3ccc(C)cc3)oc3ccccc23)cc1`, the inhibition is -5.98%.

In the case of `COc1ccc(CNC(=O)Cn2c(=O)oc3cc(S(=O)(=O)N4CCCC4)ccc32)cc1`, the inhibition was -2.25%.

On to `Cc1cccc(S(=O)(=O)c2cn(Cc3ccccc3)c3cc(N4CCCCC4C)c(F)cc3c2=O)c1` (stereo unspecified), for which the inhibition was -8.94%.

Regarding `CCCCc1ccc(C(=O)N/C(=C\c2ccc(C)cc2)C(=O)NC2CCCCC2)cc1`, the inhibition was -12.6%.

Consider `Cc1ccc(Cl)cc1N1CCN(C(=O)c2ccc(C)c(-n3c(C)nc4cccnc43)c2)CC1`, for which the inhibition was -0.734%.

Turning to `CCc1nc2ccc(C(=O)N3CCN(c4ccc(Cl)cc4)CC3)cc2nc1CC`, the inhibition was found to be 27.9%.

Turning to `Cc1cc(C(F)F)n2nc(C(=O)Nc3ccc(F)c(Cl)c3)nc2n1`, the inhibition turned out to be 21.8%.

In the case of `COc1cccc(NC(=O)C2C3C=CC(O3)C2C(=O)NCc2cccnc2)c1` (stereo unspecified), the inhibition is active: 44.1%.

Take `CCc1ccc(-c2nn(CC(=O)NC3CCCCC3)c3c2cnc2ccc(OC)cc23)cc1`: the inhibition worked out at 16.6%.

In the case of `Cc1ccc(Cl)cc1NC(=O)C(=O)NCCc1sc(-c2ccc(F)cc2)nc1C`, the inhibition is -6.42%.

As to `COc1ccc(NC(=O)CSC2=Nc3ccccc3C3=NC(CC(=O)NCc4ccc(F)cc4)C(=O)N23)cc1` (stereo unspecified), the inhibition was 2.36%.

For the compound `COc1cccc(NC(=O)/C(C#N)=C\c2cn(Cc3ccc(Cl)cc3)c3ccccc23)c1`, the inhibition worked out at 7.42%.

`CCCCCn1c(=O)[nH]c2cc(C(=O)Nc3ccc(F)cc3)ccc2c1=O`: the inhibition was -19.3%.

On to `CCOC(=O)C1CCN(S(=O)(=O)c2cc(-c3cc(C)no3)ccc2C)CC1`, for which the inhibition was -2.83%.

Take `Cc1cccc(NC(=O)CSc2nnc(CNC(=O)c3c(F)cccc3Cl)o2)c1C`: the inhibition is -5.54%.

Turning to `CC(C)c1nn2c(=O)cc(COC(=O)c3ccc(NC(=O)CCc4ccccc4)cc3)nc2s1`, the inhibition was -6.48%.

Consider `CC1CCN(CCNC(=O)c2ccc(Cn3c(SCc4ccccc4)nc4cccnc43)cc2)CC1`, for which the inhibition was 18.3%.

Take `CC(=O)c1ccc(NC(=O)NCCc2c[nH]c3ccccc23)cc1`: the inhibition was 18.3%.

On to `CCc1cccc(NC(=O)CSc2ncc3c(n2)-c2ccccc2N(Cc2ccccc2C)S3(=O)=O)c1`, for which the inhibition was -0.779%.

Consider `O=C(COc1ccc(F)cc1)Nc1ccc2nc(SCc3ccccc3)sc2c1`, for which the inhibition is -1.28%.

Consider `CCOc1ccc(-c2cc(C(=O)NCc3ccccc3)c3c(-c4ccc(CC)cc4)[nH]nc3n2)cc1`, for which the inhibition was -0.507%.

As to `O=C(CC1(O)C(=O)N(CCc2ccccc2)c2ccc(Br)cc21)c1ccccc1O` (stereo unspecified), the inhibition is -17%.

As for `Cc1ccccc1Nc1c2c(nc3nncn13)CCC2`, the inhibition was -4.85%.

Take `O=C(COC(=O)/C=C/c1ccco1)NCc1ccccc1Cl`: the inhibition is active: 32.6%.

For the compound `COc1ccc(NC(=O)Cc2csc(C)n2)cc1`, the inhibition was -19.7%.

In the case of `CC(C)(C)C(=O)Nc1c(C(=O)N2CCN(c3ccc(F)cc3)CC2)oc2ccccc12`, the inhibition turned out to be 2.42%.

Take `COc1ccccc1CNC(=O)c1cccc(Nc2nc3ccccc3n3nnnc23)c1`: the inhibition is -4.91%.

With `Cc1ccc2nc(N3CCN(c4cccc(C)c4C)CC3)c3nnnn3c2c1`, the inhibition was -18.8%.
